According to the supplement of paper PMC12217912:
The list shows a part of the results. The full chains were built here from the parent and the listed change. Inactive controls read about 0.05.

B1: TEV protease; numbered along this chain (parent)
chain: MGESLFKGPRDYNPISSSICHLTNESDGHTTSLYGIGFGPFIITNKHLFRRNNGTLVVQSLHGVFKVKDTTTLQQHLVDGRDMIIIRMPKDFPPFPQKLKFREPQREERICLVTTNFQTKSMSSMVSDTSCTFPSGDGIFWKHWIQTKDGQCGSPLVSTRDGFIVGIHSASNFTNTNNYFTSVPKNFMELLTNQEAQQWVSGWRLNADSVLWGGHKVFMVKPEEPFQPVKEATQL

Variants of: B1
Assay: raw area under fraction-flipped curve 0-4 h after induction (AUC4h, not background-subtracted), DNA-recorder readout of cleavage of the substrate (dimensionless); higher = more cleavage of the substrate by the protease variant
Details: temperature: 34 °C; time window: 0-4 h after rhamnose induction
Description: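 In vivo DNA recorder in E. coli TOP10(DE3) ΔrhaA at 34 °C. Each TEVp single-site mutant (parent TEVp 0) is paired with a single-site variant of the 7-mer TEVs (canonical ENLYFQ|S). The substrate sits between flexible linkers in a Bxb1-sfGFP-TEVs-SsrA fusion, so cleavage stabilises Bxb1 and speeds flipping of a recombination array, read by NGS. The value is the raw area under the fraction-flipped curve over 0-4 h after rhamnose induction (AUC4h), with ≥20 reads per time point. It is not background-subtracted; inactive controls average about 0.047.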
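Also: Bxb1 expression induced with 0.2% (w/v) L-rhamnose at OD600 near 0.5, cultures sampled hourly, flipped fraction per protease–substrate barcode pair counted by paired-end Illumina sequencing.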

Variant	area with substrate ENLYCQS	area with substrate ENLYEQS	area with substrate ENLYGQS	area with substrate ENLYHQS	area with substrate ENLYIQS	area with substrate ENLYMQS	area with substrate ENLYNQS	area with substrate ENLYTQS	area with substrate ENLYVQS	area with substrate ENLYDQS	area with substrate ENLYLQS	area with substrate ENLYPQS	area with substrate ENLYRQS	area with substrate ENLYSQS	area with substrate ENLYWQS	area with substrate ENLYYQS	area with substrate ENLYKQS	area with substrate ENLYQQS
MGESLFKGPRDYNPISSSICHLTNESDGHTTSLYGIGFGPFIITNKHLFRRNNGTLVVQSLHGVFKVKDTTTLQQHLVDGRDMIIIRMPKDFPPFPQKLKFREPQREERICLVTTNFQTKSMSSMVSDTSCTFPSGDGIFWKHWIQTKDGQCGSPLVSTRDGFIVGIHSASNFTNTNNYFTSVPKNFMELLTNQEAQQWVSGWRLNADSVLWGGHKVFMVKPEEPFQPRKEATQL [V229R]	0.11	0.0537	0.0675	0.0822	0.0944	0.109	0.0662	0.0886	0.059	–	–	–	–	–	–	–	–	–
MGESLFKGPRDYNPISSSICHLTNSSDGHTTSLYGIGFGPFIITNKHLFRRNNGTLVVQSLHGVFKVKDTTTLQQHLVDGRDMIIIRMPKDFPPFPQKLKFREPQREERICLVTTNFQTKSMSSMVSDTSCTFPSGDGIFWKHWIQTKDGQCGSPLVSTRDGFIVGIHSASNFTNTNNYFTSVPKNFMELLTNQEAQQWVSGWRLNADSVLWGGHKVFMVKPEEPFQPVKEATQL [E25S]	–	0.0613	0.0415	0.0789	–	0.11	0.0593	0.0871	0.128	0.0756	0.0864	0.0825	0.0657	0.0789	0.0808	0.0323	–	–
MGVSLFKGPRDYNPISSSICHLTNESDGHTTSLYGIGFGPFIITNKHLFRRNNGTLVVQSLHGVFKVKDTTTLQQHLVDGRDMIIIRMPKDFPPFPQKLKFREPQREERICLVTTNFQTKSMSSMVSDTSCTFPSGDGIFWKHWIQTKDGQCGSPLVSTRDGFIVGIHSASNFTNTNNYFTSVPKNFMELLTNQEAQQWVSGWRLNADSVLWGGHKVFMVKPEEPFQPVKEATQL [E3V]	–	–	0.0533	0.0539	0.145	0.15	–	0.0095	–	0.0551	0.109	0.0717	–	0.0924	–	0.0758	–	–
MGESTFKGPRDYNPISSSICHLTNESDGHTTSLYGIGFGPFIITNKHLFRRNNGTLVVQSLHGVFKVKDTTTLQQHLVDGRDMIIIRMPKDFPPFPQKLKFREPQREERICLVTTNFQTKSMSSMVSDTSCTFPSGDGIFWKHWIQTKDGQCGSPLVSTRDGFIVGIHSASNFTNTNNYFTSVPKNFMELLTNQEAQQWVSGWRLNADSVLWGGHKVFMVKPEEPFQPVKEATQL [L5T]	–	–	0.067	0.0736	0.152	0.107	0.0662	–	–	0.0656	–	–	–	0.0868	0.0621	–	0.0231	0.0546
MGESLFKGPRDRNPISSSICHLTNESDGHTTSLYGIGFGPFIITNKHLFRRNNGTLVVQSLHGVFKVKDTTTLQQHLVDGRDMIIIRMPKDFPPFPQKLKFREPQREERICLVTTNFQTKSMSSMVSDTSCTFPSGDGIFWKHWIQTKDGQCGSPLVSTRDGFIVGIHSASNFTNTNNYFTSVPKNFMELLTNQEAQQWVSGWRLNADSVLWGGHKVFMVKPEEPFQPVKEATQL [Y12R]	–	0.0788	–	0.0616	0.134	0.0691	0.0561	–	0.157	0.0616	0.0947	0.0819	–	–	0.0705	0.0779	0.0609	0.0496
MGESLFKGPRDYNPISSSICHLTNESDGHTTSLYGIGFGPFIITNKHLFRRNNGTLVVQSLHGVFKVKDTTTLQQHLVDGRDMIIIRMPKDFPPFPQKLKFREPQREERICLVTTNFQTKSMSSMVSDTSCTFPSGDGIFWKHWIQTKDGQCGSPLVSTRDGFIVGIHSASNFTNTNNYFTSVPKNFMELLTNQEAQQWVSGWRLNADSVLWGGHKEFMVKPEEPFQPVKEATQL [V217E]	0.0632	0.0488	0.0656	0.0644	–	0.0617	0.0392	0.0428	–	–	–	–	–	–	–	0.0492	–	–
MGESLFVGPRDYNPISSSICHLTNESDGHTTSLYGIGFGPFIITNKHLFRRNNGTLVVQSLHGVFKVKDTTTLQQHLVDGRDMIIIRMPKDFPPFPQKLKFREPQREERICLVTTNFQTKSMSSMVSDTSCTFPSGDGIFWKHWIQTKDGQCGSPLVSTRDGFIVGIHSASNFTNTNNYFTSVPKNFMELLTNQEAQQWVSGWRLNADSVLWGGHKVFMVKPEEPFQPVKEATQL [K7V]	–	0.0684	0.0667	–	0.105	–	0.0661	–	0.0751	0.0442	–	–	–	0.0682	–	0.0604	–	0.0686
MGESLFYGPRDYNPISSSICHLTNESDGHTTSLYGIGFGPFIITNKHLFRRNNGTLVVQSLHGVFKVKDTTTLQQHLVDGRDMIIIRMPKDFPPFPQKLKFREPQREERICLVTTNFQTKSMSSMVSDTSCTFPSGDGIFWKHWIQTKDGQCGSPLVSTRDGFIVGIHSASNFTNTNNYFTSVPKNFMELLTNQEAQQWVSGWRLNADSVLWGGHKVFMVKPEEPFQPVKEATQL [K7Y]	–	0.0741	–	–	0.142	–	0.0596	–	0.0981	0.118	–	–	–	–	0.0924	0.065	–	–
MGESLFKGPRDYNPISSSICHLTNESDGHTTSLYGIGFGPFIITNKHLFRRNNGTLVVQSLHGVFKVKDTTTLQQHLVDGRDMIIIRMPKDFPPFPQKLKFREPQREERICLVTTNFQTKSMSSMVSDTSCTFPSGDGIFWKHWIQTKDGQCGSPLVSTRDGFIVGIHSASNFTNTNNYFTSVPKNFMELLTNQEAQQWVSGWRLNADSVLWGGHKVFMVKPEEPFQPVAEATQL [K230A]	0.0834	0.064	0.0584	–	0.115	0.128	–	–	–	–	–	–	0.0607	0.0636	0.0766	–	–	0.0634
MGESLFKGPRDYNPISSSICHLTNESDGHTTSLYGIGFGPFIITNKHLFRRNNGTLVVQSLHGVFKVKDTTTLQQHLVDGRDMIIIRMPKDFPPFPQKLKFREPQREERICLVTTNFQTKSMSSMVSDTSCTFPSGDGIFWKHWIQTKDGQCGSPLVSTRDGFIVGIHSASNFTNTNNYFTSVPKNFMELLTNQEAQQWVSGWRLNADSVLWGGKKVFMVKPEEPFQPVKEATQL [H215K]	0.0535	0.0571	0.0533	0.0575	–	0.059	0.0652	–	0.0625	0.0515	–	0.0594	–	–	–	0.0538	0.0543	–
MGESLFKGPRDYNPISSSICHLTNESDGHTTSLYGIGFGPFIITNKHLFRRNNGTLVVQSLHGVFKVKDTTTLQQHLVDGRDMIIIRMPKDFPPFPQKLKFREPQREERICLVTTNFQTKSMSSMVSDTSCTFPSGDGIFWKHWIQTKDGQCGSPLVSTRDGFIVGIHSASNFTNTNNYFTSVPKNFMELLTNQEAQQWVSGWRLNADSVLWGGHKVFMVKPEEPFQPVKIATQL [E231I]	0.0821	–	0.076	0.0471	–	0.0886	0.0737	–	–	0.0661	–	–	–	0.0982	0.0848	0.0781	0.0723	0.0634
MGESLFKGPRDYNPISSSICHLTNESDGHTTSLYGIGFGPFIITNKHLFRRNNGTLVVQSLHGVFKVKDTTTLQQHLVDGRDMIIIRMPKDFPPFPQKLKFREPQREERICLVTTNFQTKSMSSMVSDTSCTFPSGDGIFWKHWIQTKDGQCGSPLVSTRDGFIVGIHSASNFTNTNNYFTSVPKNFMELLTNQEAQQWVSGWRLNADSVLWGGHKVFMVKPEEPFQYVKEATQL [P228Y]	0.0757	–	0.056	0.0721	–	0.0983	0.064	–	–	0.0633	–	–	0.0539	–	–	0.0603	0.0648	–
MGESLFKGPRDYNPISSSICHLTNESDGHTTSDYGIGFGPFIITNKHLFRRNNGTLVVQSLHGVFKVKDTTTLQQHLVDGRDMIIIRMPKDFPPFPQKLKFREPQREERICLVTTNFQTKSMSSMVSDTSCTFPSGDGIFWKHWIQTKDGQCGSPLVSTRDGFIVGIHSASNFTNTNNYFTSVPKNFMELLTNQEAQQWVSGWRLNADSVLWGGHKVFMVKPEEPFQPVKEATQL [L33D]	–	0.0644	0.0619	0.0605	0.0692	0.0522	0.054	0.0538	0.0589	0.0758	–	0.0581	0.0607	–	0.058	0.0602	0.0694	–
MGESLFKGPRDYNPGSSSICHLTNESDGHTTSLYGIGFGPFIITNKHLFRRNNGTLVVQSLHGVFKVKDTTTLQQHLVDGRDMIIIRMPKDFPPFPQKLKFREPQREERICLVTTNFQTKSMSSMVSDTSCTFPSGDGIFWKHWIQTKDGQCGSPLVSTRDGFIVGIHSASNFTNTNNYFTSVPKNFMELLTNQEAQQWVSGWRLNADSVLWGGHKVFMVKPEEPFQPVKEATQL [I15G]	–	0.0581	0.0572	0.0681	–	0.0631	0.0565	0.0565	–	0.0224	0.052	0.0585	0.0466	0.0617	0.0724	–	–	0.0559
MGESLFKGPRDYNPISSSICHLTNESDYHTTSLYGIGFGPFIITNKHLFRRNNGTLVVQSLHGVFKVKDTTTLQQHLVDGRDMIIIRMPKDFPPFPQKLKFREPQREERICLVTTNFQTKSMSSMVSDTSCTFPSGDGIFWKHWIQTKDGQCGSPLVSTRDGFIVGIHSASNFTNTNNYFTSVPKNFMELLTNQEAQQWVSGWRLNADSVLWGGHKVFMVKPEEPFQPVKEATQL [G28Y]	–	0.0703	0.067	0.0578	0.0699	0.0918	0.0449	0.0555	0.121	0.0674	–	–	0.0588	0.0833	0.0609	0.0524	0.0785	0.0512
MGESLFKGPRDYNPISSSICHLTNESDGHTTSLYGIGFGPFIITNKHLFRRNNGTLVVQSLHGVFKVKDTTTLQQHLVDGRDMIIIRMPKDFPPFPQKLKFREPQREERICLVTTNFQTKSMSSMVSDTSCTFPSGDGIFWKHWIQTKDGQCGSPLVSTRDGFIVGIHSASNFTNTNNYFTSVPKNFMELLTNQEAQQWVSGWRLNADSVLWGGHKVFMVKPEEPFQPVKEAYQL [T233Y]	0.0658	0.0656	0.0766	–	0.0927	–	0.0405	–	0.109	0.0483	–	–	–	–	–	0.081	0.0365	–
MKESLFKGPRDYNPISSSICHLTNESDGHTTSLYGIGFGPFIITNKHLFRRNNGTLVVQSLHGVFKVKDTTTLQQHLVDGRDMIIIRMPKDFPPFPQKLKFREPQREERICLVTTNFQTKSMSSMVSDTSCTFPSGDGIFWKHWIQTKDGQCGSPLVSTRDGFIVGIHSASNFTNTNNYFTSVPKNFMELLTNQEAQQWVSGWRLNADSVLWGGHKVFMVKPEEPFQPVKEATQL [G2K]	–	0.0624	0.0719	0.0721	–	–	0.0911	–	0.157	0.0546	–	0.0807	0.051	–	0.209	0.0897	–	0.0581
MIESLFKGPRDYNPISSSICHLTNESDGHTTSLYGIGFGPFIITNKHLFRRNNGTLVVQSLHGVFKVKDTTTLQQHLVDGRDMIIIRMPKDFPPFPQKLKFREPQREERICLVTTNFQTKSMSSMVSDTSCTFPSGDGIFWKHWIQTKDGQCGSPLVSTRDGFIVGIHSASNFTNTNNYFTSVPKNFMELLTNQEAQQWVSGWRLNADSVLWGGHKVFMVKPEEPFQPVKEATQL [G2I]	–	0.0671	0.0572	–	–	0.105	–	–	0.159	0.0454	–	–	–	–	–	–	–	0.0737
MYESLFKGPRDYNPISSSICHLTNESDGHTTSLYGIGFGPFIITNKHLFRRNNGTLVVQSLHGVFKVKDTTTLQQHLVDGRDMIIIRMPKDFPPFPQKLKFREPQREERICLVTTNFQTKSMSSMVSDTSCTFPSGDGIFWKHWIQTKDGQCGSPLVSTRDGFIVGIHSASNFTNTNNYFTSVPKNFMELLTNQEAQQWVSGWRLNADSVLWGGHKVFMVKPEEPFQPVKEATQL [G2Y]	–	0.0784	–	0.0582	0.181	0.0539	0.0697	0.104	–	0.0835	0.124	0.13	–	–	–	–	0.0668	0.0633
